Source: PubChem BioAssay AID1345083 (National Center for Advancing Translational Sciences (NCATS), 2018)
“And” between values parts separate entries of the source, which are not always exact repeats. Identical values can stand only once. The whole screen tested about 94,000 compounds, of which about 6,200 (6.6%) were called active. This list was built around the results that the source calls inconclusive (neither active nor inactive); the mix of calls is not that of the screen. Calls follow the shape of the dose curve; as a rule, active = well fitted inhibition curve with a large enough effect; inconclusive = small, poorly fitted or top-dose-only effect; inactive = flat fitted curve, though single readings scatter. Potencies of inconclusive entries are doubtful fits and often do not repeat.

Assay: Cytotoxic Profiling in HEK 293 Cell Line of Diverse Libraries Using Quantitative High-Throughput Screening; also: nearly all actives have a fitted effect of over 60% in size
Conditions: HEK 293 viability, ATP luminescence (CellTiter-Glo), 48-72 h; series mostly up to 115 µM
Summary of the method: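 Viability of HEK 293 cells, plated at 250 cells/well, was judged by cellular ATP after compound treatment for 48 or 72 hr. Luminescence was imaged 10 min after CellTiter-Glo addition at room temperature.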
Potency is read from the fitted curve at half-maximal effect; tags tell the direction and shape of the fitted curve.

| SMILES | Potency |
| --- | --- |
| Cc1c(-c2ccccc2F)[nH]c2ccc(CNC(=O)C3CCCN(C(N)=O)C3)cc12 (stereo not drawn) | inconclusive: 89.1 µM [inhibitor, single point] |
| CC(C)NC[C@H]1O[C@@H]2C[C@@H](CC(=O)NC(C)C)O[C@@H]2[C@@H]1O | inactive |
| COc1cccc(CN2Cc3cc(NC(=O)Cc4cccs4)ccc3OC(C)C2=O)c1OC (stereo not drawn) | inconclusive: 89.1 µM [inhibitor, single point] |
| CCc1ccc(NC(=O)Cn2c(=O)c(-c3noc(CC)n3)c3n(c2=O)CCCC3)cc1 | inconclusive: 79.4 µM [inhibitor, partial curve, poor fit] |
| Cc1ccc(Nc2ccnc(N3CCCC(C(=O)N4CCCC4)C3)n2)cc1 (stereo not drawn) | inconclusive: 31.6 µM [inhibitor, partial curve, poor fit] |
| O=C(c1ccc2nc(-c3ccccn3)oc2c1)N1CCCCC1 | active: 28.2 µM |
| Cc1ccc(C(=O)N2CCC(C(=O)N3CCCC3c3nc4ccncc4[nH]3)CC2)cc1 (stereo not drawn) | inactive |
| CCc1cccc(C)c1NC(=O)CN1C(=O)C(c2ccccc2)=NC12CCCC2 | inactive |
| Cc1ccc(NC(=O)CCn2ccn3nc4c(c3c2=O)CCCC4)cc1C | inconclusive: 56.2 µM [inhibitor, partial curve, poor fit] |
| CC(C(=O)NCCc1noc(-c2cccnc2)n1)c1ccccc1 (stereo not drawn) | inactive |
| O=C(NC1CCCCC1)N[C@H]1CCN2C(=O)c3ccc(Cl)cc3NC(=O)[C@H]12 | inactive |
| COC[C@@H]1CN(C(=O)c2cccc(C)c2)C[C@H]1c1nc(C2CC2)no1 | inactive |
| CCOC(=O)C1CCN(C(=O)c2cn3cc(-c4cccc(OC)c4)sc3n2)CC1 | inconclusive: 89.1 µM [inhibitor, single point] |
| COCC(=O)N1C[C@@H](COc2cccnc2)[C@H](c2ccccn2)C1 | inactive |
| COc1ccc(NC(=O)N[C@H]2C[C@@H](C(=O)N[C@H](Cc3c[nH]c4ccccc34)C(N)=O)N(C(=O)C=C(C)C)C2)cc1 | inactive |
| COC[C@@H]1CN(C(=O)Cn2nc(C)cc2C)C[C@H]1c1ccncc1 | inactive |
| COC1CCC12CCN(C(=O)c1cccs1)CC2 (stereo not drawn) | inconclusive: 89.1 µM [inhibitor, single point] |
| CCc1nnc([C@@H]2CC(F)(F)CN2C(=O)CCn2cccn2)o1 | inactive |
| CCc1noc([C@@H]2CC(F)(F)CN2C(=O)CCn2nc(C)cc2C)n1 | inconclusive: 39.8 µM [inhibitor, single point] |
| C=CCO[C@@H]1CCN2C(=O)c3cc(-c4ccc(F)cc4F)ccc3NC(=O)[C@H]12 | active: 112 µM |
| N#Cc1cccc(C(=O)N2CCC(Cc3nc(C4CC4)n[nH]3)C2)c1 (stereo not drawn) | inactive |
| O=C1Nc2ccccc2CC12CCCN2C1CCCCC1 (stereo not drawn) | inconclusive: 100 µM [inhibitor, partial curve] |
| COc1ccc(OC)c(S(=O)(=O)N2CCOCCNC(=O)[C@@H]3CCC[C@@H]32)c1 | inactive |

| SMILES | Potency |
| --- | --- |
| COc1cc(F)ccc1CN1CCCC2(Cc3ccccc3CNC2=O)C1 (stereo not drawn) | inconclusive: 63.1 µM [inhibitor, partial curve, poor fit] |
| CC1=C[C@@H](CNC(=O)c2cnccn2)[C@H](C(C)C)C[C@H]1CC(=O)O | inactive |
| O=C(NCC1CC1)c1nc2cccnc2n(Cc2ccccc2)c1=O | inactive |
| COc1ccc(OC)c(CN2CCCn3nc(C)c(-c4ccnn4C(C)C)c32)c1 | inconclusive: 100 µM [inhibitor, partial curve] |
| C[C@@H](NC(=O)[C@@H]1C[C@@H](NS(=O)(=O)c2cccs2)CCN1C(=O)c1ccco1)C(N)=O | inactive |
| CN1C(=O)C2(CCN(C(=O)COc3ccc(Cl)cc3)C2)c2ccccc21 (stereo not drawn) | inconclusive: 79.4 µM [inhibitor, single point] |
| CC(=O)Nc1ccc(CN2CCCC23Cc2ccccc2CN(C(=O)C(C)C)C3)cc1 (stereo not drawn) | inactive |
| COc1ccccc1Nc1ccnc(N2CCC(NC(=O)C(C)C)CC2)n1 | inconclusive: 50.1 µM [inhibitor, partial curve, poor fit] |
| Cc1ccc(-c2cc(C(=O)N3CCN(c4ncccn4)CC3)c3cnn(C)c3n2)cc1 | inconclusive: 56.2 µM [inhibitor, partial curve, poor fit] |
| Cn1cccc1C(=O)N1CCC(n2cc(-c3nc(-c4ccccc4)no3)nn2)C1 (stereo not drawn) | active: 44.7 µM |
| CCNC(=O)N1CCOc2ccc(CCC(=O)NCc3nc4ccccc4n3C)cc2C1 | inactive |
| COCCN1C(=O)CO[C@H]2CN(Cc3ccccc3)C[C@H]21 | inconclusive: 141 µM [inhibitor, partial curve, poor fit] |
| CCOC(=O)[C@H]1C[C@]2(CCCCN(CCO)C2=O)N(C(=O)C(CC)CC)[C@H]1c1ccco1 | inconclusive: 89.1 µM [inhibitor, single point] |
| CC(=O)Nc1ccc(CN2CCC3(C2)C(=O)Nc2ccccc23)cc1 (stereo not drawn) | inactive |
| NCCn1cc(C(=O)N2CCCC(c3[nH]ncc3Cc3ccccc3)C2)nn1 (stereo not drawn) | inconclusive: 28.2 µM [inhibitor, partial curve, poor fit] |
| CC1(COc2ccc3[nH]ccc3c2)COc2ccc(C(=O)NCc3ccco3)cc2N1 (stereo not drawn) | active: 100 µM |
| O=C(CC1CCCC1)N1CCC(C2CCN(Cc3cccc(F)c3F)CC2)C1 (stereo not drawn) | inconclusive: 50.1 µM [inhibitor, partial curve, poor fit] |
| CC(=O)Nc1cccc2ccc(OCc3nnc(C(=O)N4CCC[C@@H]4c4ccc(Br)cc4)n3Cc3ccccc3)cc12 | inconclusive: 35.5 µM [inhibitor, full curve, poor fit] |
| CN1CCOc2c(C(=O)NCc3cccnc3)cc(-c3cccc4[nH]ccc34)cc21 | inconclusive: 17.8 µM [inhibitor, full curve, poor fit] |
| COc1ccc(Cc2nc3nccc(-c4cccs4)n3n2)cc1 | inconclusive: 56.2 µM [inhibitor, partial curve, poor fit] |
| O=C(c1ccc(C(F)(F)F)cc1)N1CCC2(CC1)COc1ccccc1NC2=O | active: 79.4 µM |
| COc1cccc(CCC(=O)N2CCC3(CC2)C(=O)N(C)c2ccccc23)c1 | inconclusive: 50.1 µM [inhibitor, partial curve, poor fit] |
| COc1ccc(C(=O)N2CCC3(CC2)NCCc2c3[nH]c3ccccc23)cc1F | active: 12.6 µM |

| SMILES | Potency |
| --- | --- |
| O=C(Nc1ccccc1F)C1c2ccccc2C(=O)N(Cc2ccccc2)C12CCCC2 (stereo not drawn) | inconclusive: 20 µM [inhibitor, partial curve] |
| COc1ccccc1-c1cccc(CN2CCCC(C(=O)NC3CCCC3)C2)c1 (stereo not drawn) | inconclusive: 22.4 µM [inhibitor, full curve, poor fit] and active: 35.5 µM |
| Cc1ccc([S+](=O)([O-])N2CCN(CCCn3nc4n(c3=O)CCCC4)CC2)cc1 | inactive |
| COc1cc(CN(C)C(=O)c2c(C)noc2-c2cccc(F)c2)cc(OC)c1OC | active: 44.7 µM |
| CCOCCNC(=O)c1nc2cccnc2n(C2CC2)c1=O | inactive |
| COc1ccc(CN2CCC3(CC2)CN[S+](=O)([O-])c2ccccc2N3)cc1 | inconclusive: 44.7 µM [inhibitor, partial curve, poor fit] |
| CC(=O)Nc1ccc(-c2c(-c3ccc4c(c3)OCO4)nn(-c3cc(C)ccc3C)c2OC(C)=O)cc1 | active: 39.8 µM |
| C[S+](=O)([O-])c1ccc(-c2nnc3ccc(C(=O)NCc4ccc(Cl)cc4)cn23)cc1 | inactive |
| COc1ccc(NC(=O)CN2C(=O)C(c3ccccc3)=NC23CCCCC3)cc1 | inconclusive: 79.4 µM [inhibitor, partial curve, poor fit] |
| O=C(C1CCCN(c2nccc(Nc3ccccc3F)n2)C1)N1CCOCC1 (stereo not drawn) | inconclusive: 89.1 µM [inhibitor, single point] |
| Cc1nn(-c2ccccc2)c2c1C(C)N(C1CCN([S+](=O)([O-])c3ccc(C4CC4)cc3)C1)C2=O (stereo not drawn) | inactive |
| O=C1NCc2ccccc2CC12CCCN2CC1CCCCC1 (stereo not drawn) | inconclusive: 89.1 µM [inhibitor, partial curve, poor fit] |
| O=C(NCc1ccncc1)C1CN(Cc2cccc(Br)c2)CC12CCOCC2 (stereo not drawn) | inconclusive: 89.1 µM [inhibitor, partial curve, poor fit] |
| O=C(Cc1ccsc1)N1CC(c2noc(COc3ccccc3)n2)C1 | inconclusive: 89.1 µM [inhibitor, single point] |
| CC(=O)NC[C@H]1Cn2c(-c3ccc4c(c3)OCCO4)cnc2CO1 | inactive |
| CCN(CC)c1cc(CCC(=O)NCc2cc(OC)ccc2OC)ccn1 | inconclusive: 89.1 µM [inhibitor, single point] |
| CC(C)NC(=O)C1CCCCN1Cc1ccc(-c2cccs2)cc1 (stereo not drawn) | inconclusive: 20 µM [inhibitor, full curve, poor fit] |
| O=C(CCc1ccccc1)NCc1nnc2ccc(-c3ccccc3)nn12 | inactive |
| CCc1ccc(CNC(=O)CCC2CCN(S(=O)(=O)c3ccccc3)CC2)cc1 | inconclusive: 31.6 µM [inhibitor, partial curve, poor fit] |
| COc1ccc(-c2ccc(C(=O)Nc3cccc(F)c3)cc2)nn1 | inconclusive: 8.91 µM [inhibitor, full curve, poor fit] |
| Cc1nn(-c2ccc(C(C)C)cc2)c(C)c1[C@@H]1C=C[C@@H](NCc2cccc(Cl)c2)C1 | active: 10 µM |
| COc1ccc(NC(=O)N2CCC(O)(c3csc(CN4CCc5ccccc5C4)n3)CC2)cc1 | inconclusive: 50.1 µM [inhibitor, partial curve, poor fit] |
